Variants at the background level are over-represented here.

B1: tRNA (parent)
chain: CUCUCGGUAGCCAAGUUGGUUUAAGGCGCAAGACUUUAAUUUAUCACUACGAAAUCUUGAGAUCGGGCGUUCGACUCGCCCCCGGGAGAUUUUUUCCUCGAGCAA

The data set covers variants of B1. In words: nonsense suppression (GFP-seq) (ratio to wild type); higher = more function; SUP4oc tRNA, yeast GFP reporter sort-seq. The gist of the method: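 Nonsense suppression (GFPSEQ) is the median GFP/RFP ratio of each sorting bin, weighted by the variant's estimated share of cells in that bin and expressed relative to the unmutated parent tRNA. Yeast strains carried genome-integrated variants of an ochre-suppressor tRNA from a library with ~3% random mutations, plus a galactose-driven GFP ochre reporter and RFP, and were grown in raffinose/galactose medium containing 80 mg/L adenine. Cells were sorted into GFP/RFP bins, each bin was Illumina-sequenced (phred ≥30), and variants were kept only with ≥100 reads and ≥30 cells.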
On to UUCUCGGUAGCCAAGUUGGUUUAAGGCGCAAGAGUUUAAUUUAUCACUACGAAAUCUUGAGAUCGGGCGUUCGACUCGCCCCCGGGAGAUUUUUUCCUCGAGCAA, for which the nonsense suppression is not above 0.026.
Under CUCUGGGUAGCCUAGUUGGUUUAAGGCGCAAGACUUUAAUUUAUCACUACGAAAUCUUGAGAUCGGGGGUUCGACUCGCCCCCGGCAGAUUUUUUCCUCGAGCAA stands not above 0.026.
Under CUCUCGGUAGCCAAGUUGGUUUAAGGCGCAAGACUUUAAUUUAUCACUACGAAAUCUUGAGAUCGGCCGUUCGACUCGCCCCGGGGCGAUUUUUUCCUCGAGCAA stands not above 0.026.
Under GUCUCGGUAGCCAAGUGGGUAUUAGGCGCAAGACUUUAAUUUAUCACUACGAAAUCUUGAGAUCGGGCGUUCGACUCGCCCCCGGGAGAUUUUUUCCUCGAGCAA stands not above 0.026.
With CUCUCGGUCGCCAAGUUGGUUUAAGGCGGAAGACUUUAAUUUAUCACUACGAAAUCUUGAGACCGGGCGUUCGACUCGCCCCCGGGAGGUUUUUUCCUCGAGCAA, the nonsense suppression was not above 0.026.
Take CUCUCGGUAGCCAAAUUGGUUUAAGUCGCAAGACUUUAAUUUAUCACUACGAAAUCUUUAGAUCGGGCGUUCGACUCGCCCCCGGGAGAUUUUUUCCUCGAGCAA: the nonsense suppression is not above 0.026.
Under CUCUCGGUAGCCAAGUUGGUUUAAUGCGCAAGACUUUAAUUUAUCACUACGAAAUCUUGAGAGCGGGCGUUCGACUCGCCCCCGGGAGAUUUUUUCCUCGAGCAA stands 0.0371; under CUCUCGGUAGCCAAGUUGGGUUAAGGCGCAAGACUUUAAUUUAUCACUACGAAAUUAUGAUAUCGGGCGUUCGACUCACCCCCGGGAGAUUUUUUCCUCGAGCAA, not above 0.026; under CUCUCGGUAGCCAAGUGGGAUAAAGGCGCAAGACUUUAAUUUAUCACUACGAAAUCUUGAGAUCGGGCGUUCGACUCGCCCGCGGGAGAUUUUUUCCUCGAGCAA, not above 0.026.
Under CUCUCGGUAGCCAAGUUGGUUUAAGGCGCAAUACUUUAAUUUAUCACUACGAAAUCUUGAGAUCGGGCAUUCGAUUCGCACCCGGGAGAUUUUUUCCUCGAGCAA stands not above 0.026; under CUCUCGGUAGCCAAGUUGGUGGAAGGCGCAAGACUUUAAUUUAUCACUACGAAGUCUUGAGAUCGGGCGUUCGACUCGCACCCGGGAGAUUUUUUCCUCGAGCAA, not above 0.026.
The same measure for CUCUCGGUAGCCAAGUUGGUUUAAGGCGCAAGGCUUUAAUUUAUCACUACGAAAUCUUGAGAGCGUGCGUUAGACUCGCCCCCGGGAGAUUUUUUCCUCGAGCAA: not above 0.026; for CUCUCGGUAGCCAAGUUGGUUUAAGGCGCAAGACUUUAAUUUAUCACUACGAAAUCUUGAAAUCGGGCGUGCGACACGCCCCCGGGAGAUUUUUUCCUCGAGCAA: not above 0.026.
Consider CUCUCGGUAGCCACGUUGGUUUAAGGCGCAAGACUUUAAUUUAUCACUACGAAAUCUGUAGAUCGGGCGUUCGACUCGCCCGCGGGAGAUUUUUUCCUCGAGCAA, for which the nonsense suppression was not above 0.026.
Under CUCUCGGUAGCCAAGUUGGUAUAAGGCGCAAUACUUUAAUUUAUCACUACGAAAUCUUGAGAUCGGGCGUUCGACUCACCCCCGGGAGAUUUUUUCCUCGAGCAA stands not above 0.026.
The same measure for CUCUCCGUAGCCAAGUUGGUUUAAGGCGCAAGACUUUAAUUUAUCACUACGAAAUCUUGAGAUCGGGCGUUCGACUCGCCCCCGGAAGAUUUUUUCCUCGAGCAA: not above 0.026; for CUUUCGGUAGCCAAGUUGGUUUAAGGCGCAAGACUUUAAUUUAUCACUACGAAAUCUUGAGAUCGGGCGUUCGACUCGCCCCCGCGAGAUUUUUUCCUCGAGCAA: not above 0.026; for CUCUCGGUAGCCAAGUUGGUUUAAGGCGUAAGACUUUAAUUUAUCACUACGAAAUCUUCAGAUCGAGCGAUCGACUCGCCCCCGGGAGAUUUUUUCCUCGAGCAA: not above 0.026.
With CUCUCGGUAGCGAAGUUGGUUUAACGGGCAAGACUUUAAUUUAUCACUACGAAAUCUUGAGAACGGGCGUUCGACUCGCCCCCGGGAGAUUUUUUCCUCGAGCAA, the nonsense suppression was not above 0.026.
Under CUCUCGGUAGCCAAGUUGGUUUAAGGCGCAAGACUUUAAUUUAUCACUACGAAAUCUUGAGAUCUGGCGUUCGACCCGCCCCCGGGAGAUUUUUUCCUCGAGCAA stands not above 0.026; under CUCUCGGUAGCCAAGUUGGUUUAAGGCGCAAGACUUUAAUUUAUCACUACGAAAUCUUGAGAUCGGGCGUCCGACUCGCCCCCGGGAAAUUUUUUCCUCGAGCAA, not above 0.026; under CUCUAGGUAGCCAAGUUGGUUUAAGACGCAAGACUUUAAUUUAUCACUACGAAAUCCUGAGAUCGGGCGUUCACCUCGCCCCCGGGAGAUUUUUUCCUCGAGCAA, not above 0.026.
In the case of CUCUCGUUAGCCAAGUUGGUCGAAGGCGCAAGACUUUAAUUUAUCACUACGAAAUCUUGAGAUCGGGCAUUCGACUCGCCCCCGGGAGAUUUUUUCCUCGAGCAA, the nonsense suppression is not above 0.026.
Under CUCUCGGUAGCCAAGUUGGUUUAAGGCGCAAGACUUUAAUUUAUCACUACGAAAUCUUGAGAGCGGGCGUUCGACUCGCCCCCCGGAGAUUUUUUCCUCGAGCAA stands 0.0283; under CUCUCGGUAGCCUAAUUGGUUUAAGGCGCAAGACUUUAAUUUAUCACUACGAAAUCUUGAGAUCGGGCGUUCGACACGCCCCCGGGAGAUUUUUUCCUCGAGCAA, not above 0.026.
The same measure for CACUCGGUAGCUAAGUGGGUUUAAGGCGCAAGAGUUUAAUUUAUCACUACGAAAUCUUGAGAUCGGGCGUGAGACUCACCCCCGGGAGAUUUUUUCCUCGAGCAA: not above 0.026; for CUCUCGGUAGCCAAGUUGAUUUAAGGCGGAAGACUUUAAUUUAUCACUACGAAAUCUUGAGCUCGGGCGUUCGACUCGCCCCCGGGAGAUUUUUUCCUCGAGCAA: not above 0.026.
The same measure for CUCUCGGUAGCCAAGUUGGUGUAAGGCUCAAGACUUUAAUUUAUCACUACGAAAUCUUGAGAUCGGGCGUUCGACCCGCCCCCGGGAGAUUUUUUCCUCGAGCAA: not above 0.026; for CUCUCGGUAGCCAAGUUGGAUUAAGGCGCAAGACUUUAAUUUAUCACUACGAAAUCUUGAGAUCGGGCGUACGACUCGCCCCCGGGAGAUUUUUUCCUCGAGCAA: not above 0.026; for CUCUCGGUAGCCAAGUUGGUUUAAAGCGCAAGACUUUAAUUUAUCACUACGAAAUCUUGAGAUCGGGCGUUCCACUCGCCCCCGGGUGAUUUUUUCCUCGAGCAA: not above 0.026.
As to CUCUCGGUAGCCAAGUUGGUUUAAGACGCACGACUUUAAUUUAUCACUACGAAAUCUUGAGAUCGGGCGUUCGACUCGCCCCCGGGAGAUUUUUUCCUCGAGCAA, the nonsense suppression was not above 0.026.
The same measure for CUCUCGGUAGCCAAGUUGGUUUAAGGCGCAAGACUUUAAUUUAUCACUACGAAAUCUUGUGAUCGGGCGUUCGACCCGCCCCCGGGAGAUUUUUUCCUCGAGCAA: 1.05.
Under CUCUCGGUAGCCAAGUUGGUUUAAGGCGCAAGACUUUAAUUUAUCACUACGAAAUCAUGAGAUCGGGCGUUCGACUAGCCCCCGGGCGAUUUUUUCCUCGAGCAA stands not above 0.026; under CUCUCGGUAGCCAAGUUGGUUUAAGGCGCAAGAAUUUAAUUUAUCACUACGAAAUCUUGACACCGGGCGUUCGUCUCGCCCCCGGGAGAUUUUUUCCUCGAGCAA, not above 0.026; under CUCUCGGUAGCCAAGUUGGUUUAGGACGCAAGACUUUAAUUUAUCACUACGAAAUCUUGAGAUCGGGCGUUCGACUCGCACCCGGUAGAUUUUUUCCUCGAGCAA, not above 0.026.
Under CUCUUGGUAGCCAAGUUGGUUUAAGGCGCACGACUUUAAUUUAUCACUACGAAAUCUUGAGAUCGGGCGUUCGACUCGCCCCCGGGAGAUUUUUUCCUCGAGCAA stands not above 0.026.
Consider CUCUCGGUAGCCAAGUUGGUUUAAGGCGCAAGACUUUAAUUUAUCACUACGAAAACUUGAGAUCGGGCGUUCGACUCGCCCCUGGGAGAUUUUUUCCUCGAGCAA, for which the nonsense suppression is not above 0.026.
Under CUCUAGGUAGCCAAGUUGGUUUUAGGCGCAAGAGUUUAAUUUAUCACUACGAAAUCUUGAGAUCGGGCGUUCGACUCGCCCCCGGGAGAUUUUUUCCUCGAGCAA stands not above 0.026.
Under CUCUCGGUAGCCAAGUUGGUUUAAGGCGCAAGACUUUAAUUUAUCACUACGAAAUCAUGAGAUCGGGCGUUCGACUCGACCCCGGGGGAUUUUUUCCUCGAGCAA stands not above 0.026.
Under CUCUGGGUAGCCAAGUUGGUUUAAGGCGCAAGACUUUAAUUUAUCACUACGAAAUCUUGAGAUCGGGCGUUCUACACCCCCCCGGGAGAUUUUUUCCUCGAGCAA stands not above 0.026; under CUCUCGGUAGCCAAACUGGUUUAAGGCGCAAGACUUUAAUUUAUCACUACGAAAUCUUGAGAUCGGGCGUUCGACUCCCCCCCGGGAGAUUUUUUCCUCGAGCAA, not above 0.026.
Take CUCUCGGUAGACCCGUUGGUUUAAGGCGCAAGACUUUAAUUUAUCACUACGAAAUCCUGAGAUCGGGCGUUCGACUCGCCCCCGGGAGAUUUUUUCCUCGAGCAA: the nonsense suppression is not above 0.026.
Under CUCUCGGCAGCCAAGUUGGUUUAAGGCGCAAGACUUUAAUUUAUCACUACGAAAUCUUGAGAUCGGGCGUUCGACUAGCCCCCGGGAGAUUUUUUCCUCGAGCAA stands not above 0.026; under CUCUCGGCUGCCAAGUUGGUUUAAGGCGCAAGACAUUAAUUUAUCACUACGAAAUCUUGAGAUCGGGCGUUCGACUCGCCCCCGGGAGAUUUUUUCCUCGAGCAA, not above 0.026; under CUCUCGGUAGCCAAGUUGGUUUAAGGCGCAAGACUUUAAUUUAUCACUACGAAAGCUUGAGAUCGGUCGUUCGACUCGCCCCCGGCAGAUUUUUUCCUCGAGCAA, not above 0.026.
The same measure for CUCUCGGUAGCCCAGUUGGUUUAAGGCGCAAGACUUUAAUUUAUCACUACGAAAUCUUGAGAUCGGGCGUUCGACUCGCCCCCGGGAGGUUUUUUCCUCGAGCAA: 0.122.
UUCUCGGUAGCCAAAUUGGUUUAAGGCGUAAGACUUUAAUUUAUCACUACGAAAUCUUGAGAUCGGGCGUUCGACUCGCCCCCGGGAGAUUUUUUCCUCGAGCAA: the nonsense suppression is not above 0.026.
The same measure for CUCUCGGUUGCCAAGUUGGUUUAAGGCGCAAGACUUUAAUUUAUCACUACGAAAUCUUGAGCUCGGGCGUUCGACUCGCCCCCGGGGUAUUUUUUCCUCGAGCAA: not above 0.026; for CUCUCGGUAGCCAAGCUGGUUUAAGGCGCAAGACUUUAAUUUAUCACUACGAAAUCUUGAGAUCGGGCGUUCGGCUCGCCCCCGGGAGAUUUUUUCCUCGAGCAA: not above 0.026.
As for CUAUCGGUAGCCAAGUUGGUUUAAGGCGCAGGACUUUAAUUUAUCACUACGAAAUCUUGAGAUCGGGCGUUCGACUCGCCCCCGUGAGAUUUUUUCCUCGAGCAA, the nonsense suppression is not above 0.026.
The same measure for CUCUCGGUAGCCAAGUUGGAUUAAGGCCCAAGACUUUAAUUUAUCACUACGAAAUCUUGAGAUCGGGCGUUCGACUCGCCCCCGGGAGAUUUUUUCCUCGAGCAA: 0.182; for CUCUCGGUAGCCAAGUUGGUUUAAGGCGCAGGACUUUAAUUUAUCACUACGAAAUCUUGAGAUCAGGCGUUCGAAUCGCCCCUGGGAGAUUUUUUCCUCGAGCAA: not above 0.026; for CUCUUGGUAGCCAAGUUGGUUUAAGGCGCAAGAAUUUAAUUUAUCACUACGAAAUCUUGAGAUCAGGCGUUCGACUCGCCCCCGGGAGAUUUUUUCCUCGAGCAA: not above 0.026.
As for CUCUCGGUAGCGAAGUUGGUUUAAAGCGCAAGACUUUAAUUUAUCACUACGAAAUCUUGAGAUCGGGCGUUCGACUCGCCCCCGGGAGAUUUUUUCCUCGAGCAA, the nonsense suppression was not above 0.026.

The values above are taken from the RNAGym collection of RNA variant scans (doi:10.1101/gad.245936.114).
